About 14,000 (4.5%) of roughly 310,000 compounds showed an effect of 50% or more. Effects have a minus sign here. This is one part of the list.
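Note: peak tail current of the secondary pulse compared with the same well before compound.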

Chain of human ether-à-go-go-related gene (hERG) potassium channel (Q12809 whole entry, looked up): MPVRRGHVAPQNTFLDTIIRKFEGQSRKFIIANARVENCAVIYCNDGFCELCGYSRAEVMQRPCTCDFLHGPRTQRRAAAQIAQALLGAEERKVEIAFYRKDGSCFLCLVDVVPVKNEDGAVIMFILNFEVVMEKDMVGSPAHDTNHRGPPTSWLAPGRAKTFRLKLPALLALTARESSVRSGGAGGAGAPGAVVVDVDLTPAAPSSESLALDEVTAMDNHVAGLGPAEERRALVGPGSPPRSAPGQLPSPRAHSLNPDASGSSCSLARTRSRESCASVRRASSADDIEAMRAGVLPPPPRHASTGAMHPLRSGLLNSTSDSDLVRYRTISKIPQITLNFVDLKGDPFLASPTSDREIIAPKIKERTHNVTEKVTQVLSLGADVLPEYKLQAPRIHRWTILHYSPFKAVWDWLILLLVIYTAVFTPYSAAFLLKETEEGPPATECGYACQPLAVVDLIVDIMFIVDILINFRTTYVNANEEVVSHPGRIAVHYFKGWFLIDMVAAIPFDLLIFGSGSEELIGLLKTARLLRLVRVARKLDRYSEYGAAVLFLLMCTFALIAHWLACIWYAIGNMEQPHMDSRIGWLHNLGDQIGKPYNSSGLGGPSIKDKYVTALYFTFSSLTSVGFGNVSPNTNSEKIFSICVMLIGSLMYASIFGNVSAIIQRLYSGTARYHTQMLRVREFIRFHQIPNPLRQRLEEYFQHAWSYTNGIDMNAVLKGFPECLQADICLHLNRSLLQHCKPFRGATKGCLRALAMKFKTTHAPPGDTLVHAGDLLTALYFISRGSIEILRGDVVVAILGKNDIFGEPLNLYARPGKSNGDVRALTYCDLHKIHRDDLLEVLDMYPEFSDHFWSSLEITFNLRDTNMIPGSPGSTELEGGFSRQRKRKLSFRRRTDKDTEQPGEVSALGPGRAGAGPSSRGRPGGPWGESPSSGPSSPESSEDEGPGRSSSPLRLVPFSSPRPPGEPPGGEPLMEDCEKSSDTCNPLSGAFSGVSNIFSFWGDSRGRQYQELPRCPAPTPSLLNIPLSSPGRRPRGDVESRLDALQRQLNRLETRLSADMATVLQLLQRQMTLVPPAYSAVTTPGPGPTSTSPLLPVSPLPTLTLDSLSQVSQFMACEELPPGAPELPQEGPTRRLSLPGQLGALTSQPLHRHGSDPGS

This assay has as its target human ether-à-go-go-related gene (hERG) potassium channel (human, UniProt Q12809). In words: primary screen, population patch clamp on CHO cells stably expressing hERG.
Regarding `COc1cc(OC)cc(C(C(=O)NCc2ccccc2)N(Cc2ccco2)C(=O)c2ccno2)c1` (stereo not shown), the “hERG current change (%, negative = inhibition) at 10uM” value is reported as -28.1%.
Regarding `CCOC(=O)N1CCC(N2CCN(c3cc(C)ccc3C)CC2)CC1`, the “hERG current change (%, negative = inhibition) at 10uM” value is -51.2%.
Then `CCOC(=O)c1c(NC(=O)C2c3ccccc3Oc3ccccc32)sc(C(C)=O)c1C`, with 27.9%; and `Cc1cc(C(F)F)n2ncc(C(=O)N3CCc4ccccc4C3)c2n1`, with -24%; and `Cn1c(=O)[nH]c2nc[nH]c2c1=O`, with 18.7%.
As for `Cc1cc(C)n(C(C)CC(=O)Nc2ccc(-c3ccno3)cc2)n1` (stereo not shown), the figure is 1.47%; as for `Cc1ccc2c(c1)N(CCCC(=O)Nc1cccc(C(F)(F)F)c1)C(=O)CO2`, 12.9%.
As to `Cc1nn(-c2nnc(NCc3ccccc3)nn2)c(C)c1Br`, the “hERG current change (%, negative = inhibition) at 10uM” value is -8.53%.
For `COC(=O)CC1=NN(c2nc(C)cc(C)n2)C(=O)C1`, the “hERG current change (%, negative = inhibition) at 10uM” value came to 16.9%.
Then `COc1ccccc1NC(=O)c1sc2nc(-c3ccco3)ccc2c1N`, with 1.24%.
As for `Cc1ccc(C(C(=O)NC2CCCCC2)N(C(=O)CCCC(=O)Nc2ccccn2)c2ccc3c(c2)OCCO3)cc1` (stereo not shown), the figure is -3.99%; as for `COC(=O)/C(=C\Nc1ccccc1)NC(=O)c1ccc(Cl)cc1Cl`, -17.2%.
As for `O=C1CCC(=O)N1c1ccc(S(=O)(=O)Nc2cccc([N+](=O)[O-])c2)cc1`, the figure is 35.3%; as for `Fc1ccc(Cn2cc(C(=S)N3CCOCC3)c3ccccc32)cc1`, 0.0885%.
Turning to `CC1CCN(Cc2c(O)ccc3c2O/C(=C\c2ccco2)C3=O)CC1`, the “hERG current change (%, negative = inhibition) at 10uM” value is -14.1%.
As for `O=C(CN1C(=O)NC2(CCCCC2)C1=O)NCC(=O)Nc1ccc(F)c(F)c1`, the figure is -0.566%.
As for `Cc1ccc(N2C(=O)NC(=O)/C(=C\c3cc(C)n(-c4cc(C(=O)O)cc(C(=O)O)c4)c3C)C2=O)cc1`, the figure is 15%; as for `Cc1ccc(S(=O)(=O)N2CCC(C(=O)N3CC(C)OC(C)C3)CC2)cc1` (stereo not shown), 9.16%; as for `CCn1nc(C)c(CN2CCCCC2C(=O)Nc2ccc(Oc3cccnc3)cc2)c1C` (stereo not shown), -15.9%.
As for `CN(C)CCNc1c2c(c(C#N)c3nc4ccccc4n13)CCCC2`, the figure is -23.5%; as for `C=CCc1cc(C)ccc1OCCOCCn1ccnc1.O=C(O)C(=O)O`, -30.7%; as for `COc1ccc(C)cc1NC(=O)C1CCN(S(=O)(=O)c2cccc3cccnc23)CC1`, -21%.
Regarding `COc1ccc2c(CC(=O)Nc3nccs3)coc2c1`, the “hERG current change (%, negative = inhibition) at 10uM” value came out at 19.7%.
Regarding `COc1cc(C=O)ccc1OCCCOc1ccc([N+](=O)[O-])cc1`, the “hERG current change (%, negative = inhibition) at 10uM” value is -10.8%.
As for `COc1ccc(NC(=O)COC(=O)C2CC(=O)N(CCc3ccc(OC)c(OC)c3)C2)cc1Cl` (stereo not shown), the figure is -10.6%.
Take `Cc1ccc(-n2c(C)nnc2SCC(=O)N(C)c2c(N)n(Cc3ccccc3)c(=O)[nH]c2=O)cc1`: the “hERG current change (%, negative = inhibition) at 10uM” value is listed as 4.71%.
For the molecule `CCOc1ccccc1NC(=O)c1cccc2ccccc12`, the “hERG current change (%, negative = inhibition) at 10uM” value is on record as -6.91%.
As to `N#C/C(=C\Nc1ccccc1SC(F)(F)F)c1nc(-c2ccc(F)cc2)cs1`, the “hERG current change (%, negative = inhibition) at 10uM” value stood at 11.3%.
As for `Cc1cc(=O)[nH]c2ccc(Cl)cc12`, the figure is 3.12%; as for `CC(=O)c1ccccc1OCCOCCOCCOc1ccccc1C(C)=O`, -29.7%; as for `NNc1nc2c(Cl)cccc2s1`, 4.87%.
In the case of `Cc1cc(C)n2nc(N)c(N=Nc3cccc(Cl)c3)c2n1`, the “hERG current change (%, negative = inhibition) at 10uM” value is recorded as 10.7%.
Then `CSCCC(NC(=O)c1ccco1)C(=O)O` (stereo not shown), with -0.773%; and `CCCSP1(=S)NCCCO1` (stereo not shown), with 14.1%.
As for `c1ccc2c(c1)[nH]c1nc(SCCN3CCOCC3)nnc12`, the figure is -1.72%; as for `Cc1n[nH]c(=S)n1/N=C/c1ccc(Br)o1`, 12.5%.
As for `O=C(NNc1c2ccccc2nc2ccccc12)C(O)c1ccccc1` (stereo not shown), the figure is -1.17%.
Turning to `COc1cccc(N(C(=O)c2ccn[nH]2)C2(C(=O)Nc3c(C)cccc3C)CCCCC2)c1`, the “hERG current change (%, negative = inhibition) at 10uM” value was -32%.
Turning to `COc1ccc(NC(=O)CCCCC(=O)Nc2ccc(OC)cc2)cc1`, the “hERG current change (%, negative = inhibition) at 10uM” value worked out at 14.7%.
As to `CCC(C)NCC(O)(c1ccc(Cl)cc1)c1ccc(Cl)cc1` (stereo not shown), the “hERG current change (%, negative = inhibition) at 10uM” value is recorded as -37.7%.
On to `CC1=C(C(=O)OCc2ccccc2)C(c2ccsc2)NC(=O)N1C` (stereo not shown), for which the “hERG current change (%, negative = inhibition) at 10uM” value is -37.7%.
Then `COc1ccc(-c2ccc3oc(-c4ccc(OC)cc4)c(C#CC4(O)CCCCC4)c3c2)cc1`, with 17.8%; and `CCC(Oc1ccccc1)C(=O)N1CCN(CC)CC1` (stereo not shown), with 14.9%; and `CN1CCN(S(=O)(=O)c2ccc(-c3noc(C4CCN(S(C)(=O)=O)CC4)n3)cc2)CC1`, with 2.81%.
Then `CN(CC(=O)Nc1ccccc1C(=O)NC1CC1)Cc1ccc(Cl)cc1`, with -43.1%; and `Cc1ccc(S(=O)(=O)N2CCN(C(=O)c3nn(C(C)C)c(=O)c4ccccc34)CC2)cc1C`, with -17%.
As for `COc1ccc(C(CC(=O)O)NC(=O)c2ccco2)cc1OC` (stereo not shown), the figure is 1.57%; as for `CCOC(=O)C1(Cc2ccccc2)CCN(Cc2ccc(COC)o2)CC1`, -19.1%; as for `COc1cc(-c2nnc(SCC(=O)N3CCOCC3)o2)cc(OC)c1OC`, -5.11%.
`COc1ccc(CCN(C)c2ccc(C(N)=O)cc2[N+](=O)[O-])cc1OC`: the “hERG current change (%, negative = inhibition) at 10uM” value is -6.3%.
For `CCCCNc1nc(N)ncc1[N+](=O)[O-]`, the “hERG current change (%, negative = inhibition) at 10uM” value amounted to 6.58%.
As for `CC1(C)Cc2cccc(OCC(=O)OCC(=O)Nc3ccccc3)c2O1`, the figure is -7.6%; as for `COc1ccc(/C=N/NC(=O)c2ccc(N3CCCC3=O)cc2)cc1`, 3.31%; as for `Cn1c(=O)oc2cc(S(=O)(=O)NCCC(=O)NC3CCCc4ccccc43)ccc21` (stereo not shown), 6.6%.
Then `Cc1ccc(NC(=O)CSc2ccc(-c3cccnc3)nn2)c(C)c1`, with -22.3%; and `C=C(C)C(=O)Nc1nnc(-c2cccs2)s1`, with -3.43%.
As to `COC(=O)c1ccc(NC(=O)COC(=O)CSc2nc(C)cc(C)n2)cc1`, the “hERG current change (%, negative = inhibition) at 10uM” value was determined as 7.58%.
Then `O=C(Nc1nc2c(F)cc(F)cc2s1)c1ccccn1`, with 3.01%; and `Nc1nc(CN2CCc3ccccc3C2)nc(Nc2ccccc2)n1`, with -51%.
As for `COc1cccc(NC(=S)N(CCc2nc3cc(C)c(C)cc3[nH]2)Cc2cccnc2)c1`, the figure is 4.24%; as for `Cc1cc(C)n(Cc2cc(C(=O)O)c3ccccc3n2)n1`, 11%.
Then `Cc1ccc(S(=O)(=O)N2CCN(CC(=O)N3CCOCC3)CC2)cc1`, with 16.8%.
Regarding `Cc1cc2c(cc1C)C(c1ccccc1OC(C)C)CC(=O)N2` (stereo not shown), the “hERG current change (%, negative = inhibition) at 10uM” value is given as -2.1%.
Then `COc1ccccc1C(=O)N/C(=C\c1ccccc1)C(=O)NCc1ccco1`, with -38.1%.
In the case of `CC1=C(c2ccc(C(C)C)cc2)S(=O)(=O)N=C1N1CCN(C(=O)c2ccco2)CC1`, the “hERG current change (%, negative = inhibition) at 10uM” value is reported as -23.2%.
Then `CCOc1ccc(C2CC(c3c(O)n(C)c(=O)n(C)c3=O)=NN2)cc1` (stereo not shown), with -14.9%.
With `CN(C(=O)CSc1nncn1C)C1CCCN(Cc2ccccc2F)C1` (stereo not shown), the “hERG current change (%, negative = inhibition) at 10uM” value is reported as 0.0293%.
On to `COc1ccc(C)cc1NC(=O)COC(=O)c1ccc2c(c1)OCO2`, for which the “hERG current change (%, negative = inhibition) at 10uM” value was -2.14%.
For the molecule `O=C(N/N=C/c1cc2ccccc2nc1Cl)/C(=C/c1cccs1)NC(=O)c1ccccc1`, the “hERG current change (%, negative = inhibition) at 10uM” value is recorded as -11.6%.
Then `O=C(O)c1ccccc1/C=N/NC(=O)C1CCCC1`, with 20.8%; and `CCN(CC)S(=O)(=O)c1ccc(OC)nc1`, with 10.4%.
As for `OC(COc1ccccc1)CN1CCN(c2ncccn2)CC1` (stereo not shown), the figure is -22.9%.
As for `CCCCNC(=O)N1CCN(C/C=C/c2ccccc2)CC1`, the figure is -29.9%.
Take `Cc1ccc(C)c(N(C)C(=O)CCS(=O)(=O)c2cccc3nonc23)c1`: the “hERG current change (%, negative = inhibition) at 10uM” value was found to be 4.18%.
Then `Cc1ccc(S(=O)(=O)Nc2c(C)[nH]c(=O)[nH]c2=O)cc1C`, with 16.4%.
Take `CC(Sc1nnc2ccccn12)C(=O)Nc1ccc2c(c1)OCO2` (stereo not shown): the “hERG current change (%, negative = inhibition) at 10uM” value is reported as -4.66%.
As for `O=C(NCCN1CCOCC1)c1ccc(CS(=O)(=O)c2c(Cl)cccc2Cl)o1`, the “hERG current change (%, negative = inhibition) at 10uM” value came to 0.302%.
As to `COc1ccc(C)cc1NC(=O)CC1COc2ccccc2O1` (stereo not shown), the “hERG current change (%, negative = inhibition) at 10uM” value was -1.49%.
Then `C=CCN1C(=O)NC(=O)/C(=C/c2ccc(OCC(=O)Nc3ccc(C)cc3)cc2)C1=O`, with -1.77%.
In the case of `Cc1c2cccn2cc[n+]1C.[I-]`, the “hERG current change (%, negative = inhibition) at 10uM” value is -2.01%.
Then `O=c1oc2ccccc2cc1-c1ccc(O)cc1O`, with 9.71%; and `COc1ccc(Nc2cc(C)nc3c(C)cccc23)cc1OC`, with -21.3%.
As for `CCN(C(=O)COC(=O)c1cc(NS(=O)(=O)c2ccc(Cl)c([N+](=O)[O-])c2)ccc1O)C1CCCCC1`, the figure is 0.522%; as for `CCOC(=O)C1CCN(c2cc3c(cc2NC(=O)c2ccc(F)cc2)n(C)c(=O)n3C)CC1`, 4.47%; as for `O=C(Nc1ncccc1O)c1c(O)c2ccccc2[nH]c1=O`, 10.7%.
Then `COc1cc(C(C)=O)ccc1OCC(=O)Nc1ccc(C)c(S(=O)(=O)N2CCCCCC2)c1`, with -26.3%.
For `Cc1ccc(C(=O)O/N=C/c2ccc3c(c2)OCO3)cc1`, the “hERG current change (%, negative = inhibition) at 10uM” value is 16.7%.
Then `Cc1ccc(C=Nc2ccccc2C(=O)Nc2ccccc2)cc1`, with 11.6%.

The record behind these values is article PMC4336329 (PLoS ONE, 2015).
